Laboratory results from the RNAGym collection of RNA variant scans (doi:10.1093/nar/gkz1192).
Read counts are not given, so values of variants with three or more changes are uncertain.

B1: CPEB3 Ribozyme (parent)
chain: UAACAGGGGGCCACAGCAGAAGCGUUCACGUCGCAGCCCCUGUCAGAUUCUGGUGAAUCUGCGAAUUCUGCUGUAUAUCUC

Variants of: B1
Assay: self-cleavage, relative activity (ratio to wild type); higher = more cleavage; in vitro, sequencing
Method in brief: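 For each CPEB3 ribozyme variant, relative activity is its cleaved/total read fraction divided by the unmutated ribozyme's. Barcoded error-prone PCR libraries were transcribed by T7 RNA polymerase (5 hours, 37°C) and held in DNase I for 15 min before an EDTA stop, with cleavage occurring throughout. Template-switching reverse transcription and Illumina sequencing were used to read the RNAs. A 5-read minimum applied, and results are the mean of three batches.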

Variant | self-cleavage
UAAUAGGGGGCCACAGCAGAAGCGCUCACGUCGCAGCCCCUGUCAGAUUCGGGUGAAUCUGCGAAUUCAGCCGUAUAUCUC [C4U U25C U51G U69A U72C] | 0.05
UAAUAGGGGGCCACAGCAGAAGCGUUCACGUCGCAGCCACUGUCAGAUUCUGGUGACUCUGCGAAUUCUGCUGUAUAUCUC [C4U C39A A57C] | 0.15
UAAUAGGGGGCCACUGCAGAAGCGUUCACGCCGCAGCCCCUGCCAGAUUCUGGUGAGUCUGCGAAUUCUGCUGUAUAUCUC [C4U A15U U31C U43C A57G] | 0.24
UAAUAGGGGGCCUCGGCAGAAGCGUUCACGUCGCAGCCCCUGUCAGAUUCUGGUGAAUCUGCGAAUUCUGCAGUAUAUCUC [C4U A13U A15G U72A] | 0.46
UAAUAGGGGGCCACAGCAGAAGCGUUCACGUCGCAGCCCCUGUCAGAUUCUGGUGAGUCAGCGAAUUCUGCUGUAUAUCAC [C4U A57G U60A U80A] | 0.84
UAAGAGGGGGCCACGGCAGAAGCGUUCACGUCGCAGCCCCUGUCAGAUCCUGGUGAAUCUGCGAAUUCCGCUGUAUAUCUC [C4G A15G U49C U69C] | 0.16
UAAAAGGGGGCCACAGCAGAAGCGUUCACGUCGCAGCCCCCGUCGGAUUCUGGUGAAUCUGCAAAUUCUGCUGUAUAUCUC [C4A U41C A45G G63A] | 0.97
UAAUAGGGGGCCACAGCAGUAGCGUUCACGUCGCAGCCCCUGUCAGAUUCUGGUGUAUCUGCGAAUUCCGCUGUAUAUCUC [C4U A20U A56U U69C] | 0.14
UAAUAGGGGGCCACGGCAGAAGCGUCCACGUCGCUGCCCCUGUCAGAUACUGGUGAAUCUGCGAAUUCUGCUGUAUAUCUC [C4U A15G U26C A35U U49A] | 0.17
UAAUAGGGGGCCACAGCAGAAGCGUUCACGCCGCAGCCCCUGUUAGAUUCUGGUGAACCAGCGAAUUCUGCUGUAUAUCUC [C4U U31C C44U U58C U60A] | 0.21
UAAGAGGGGGCCACAGUAGAAGCGUUCCCGUCGCAGCCCCUGUCUGAUUCUGGUGAAUCUGCGAAUUCUGCUGUACACCUC [C4G C17U A28C A45U U76C U78C] | 0.09
UAAGAGGGGGCUACAGCAGAAGCGUUCACGUCGCAGCCCCUGUCAGAUUCUGGAGAAUCUGCGAAUUCUGCAGUAUAUCUU [C4G C12U U54A U72A C81U] | 1.32
UAAGAGGGGGCCACAGCGGAAGCGUUCACGCCGCAGCCCCUGUCAGAUUCGGGCGAAUCUGCGAAUUCUGCAGUAUAUCUC [C4G A18G U31C U51G U54C U72A] | 0.25
UAAUUGGGGGCCACAGCAGAAGCGUUCGCGUCGCAGCCCCUGUCAGAUUCUGGGGGAUCUGCGUAUUCUGCUGCAUAUCUC [C4U A5U A28G U54G A56G A64U U74C] | 0.18
UAAUAGGGGGCCACAGCAGAAGCGUCCACGUCGCAGCCCCUGUCAGAUUCUGGUGGAUCUGCGAAUUCUGCUGUAUUUCUC [C4U U26C A56G A77U] | 0.5
UAAUAGGGGGCCACAGCAGAAGCGUUCGCGUCGCAGCCCCUGUCAGAUUCUGGUGAAUCUGCGAAUUCCGCUGUAUAUCUC [C4U A28G U69C] | 0.17
UAAUAGGGGGCCACAGCAGAAGCGUUCACGUCGCAGCCCCUGUCAUACUCUGGUGAGUCUGCGAAUUCUGCAAUAUAUCUC [C4U G46U U48C A57G U72A G73A] | 1.16

Variant | self-cleavage
UAAUAGGGGGCCACAGCAGAAGCGUUCACGUCGCUGCCCCUGCCAGAUACUGGUGAAUCUGCGGAUUCUGCUGUAUACCUC [C4U A35U U43C U49A A64G U78C] | 0.08
UAAAAGGAGGCCAAAGCAGAGGCGUUCACGUCGCAGCCCCUGUCAGAUUCUGGUGAAUCUGCGAAUUCUGCCGUUUAUCUC [C4A G8A C14A A21G U72C A75U] | 0.05
UAAUAGGGGGCCACAGCUGAAGCGCUCACGUCGCAGCCCCUGUCAGAUUCUGGUGAAUCUGCGAAUUCUGCUGUAUAUCUC [C4U A18U U25C] | 0.1
UAAUAGGGGGCCACAGCAGGAGCGUUCACGUCGCGGCCCCUGUCGGAUUCUGGUGAAUCUGCGAAUUCUGCUGUAUAUCUC [C4U A20G A35G A45G] | 1.07
UAAUAGGGGGCCUCAGCAGAAGCGUUCGCGUCGCAACCCCUGCCAGAUUCUGGUGAAUCUGUGAAUUCUGCUGUAUAUCUC [C4U A13U A28G G36A U43C C62U] | 0.34
UAAUAAGGGGCCACAGCAGAAGCGUUCACGUCGCCGCCCCUGUCAGAUUCUGGUGAAUCUGCGAAUUCUGCUGUAUAUCUC [C4U G6A A35C] | 0.2
UAAUAGGGGGCCACAGCAGAAGCGUUCGCGUCGCGGCCCCUGACAGAUUCUGGUGAAUCUGCGAAUUCUGCUGUAUAUCUC [C4U A28G A35G U43A] | 1.11
UAAGAGGGGGCCACAGCAGAAGCGUUCACGUCGCAGCCCCUGUCGGAUUCUGGUGAAUCUGCGAAUUCUGCUGUAUAUCCC [C4G A45G U80C] | 1.16
UAAUAGGGGGCCACAGCAGAAGCGUCCACGUCGCAGCCCCUGUCUGAUUCUGGUGAAUCCGCGUAUUCUGCUGUAUAUCUC [C4U U26C A45U U60C A64U] | 0.18
UAAUAGGGGGCCACAGCCGAAGCGUUCUCGUCGCAGCCCCUGUCAGAUUCUGGUGAAUCUGCGAAUUCUGCUGUAUAUCUC [C4U A18C A28U] | 0.48
UAAGAGGGGGCCACAGCAGAAGCGUUCACGUCGCAGCCCCUGUCAGAUUCUGGUGAAUCAGCGAAUUCUGCUGUAUACCUC [C4G U60A U78C] | 0.64
UAAAAGGGGGCCACAGCAGAAGCGUUCACGUCGCAGCCCCUGUCGGACUCCGGUGAAUCUACGAAUUCAGCUGUAUAUCUC [C4A A45G U48C U51C G61A U69A] | 0.16
UAAUAGGGGGCCACAGUAGAAGCGUUCACGUCGCAGCCCCUGUCGGAUUCUGGUGAAUCUGCGAAUUCUGCUGUAUAUCUC [C4U C17U A45G] | 1.17
UAAGAGGGGGCUACAGCAGAAGCGCUCACGUCGCAGCCCCUGUCUGGUUCUGGUGAAUCUGCGGAUUCUGCUGUAUAUCCC [C4G C12U U25C A45U A47G A64G U80C] | 0.12
UAAAAGGGGGCCACAGCAGAAGCGUCCACGUCGCAGACCCUGUCAGACUCUGGUGAAUCUGCGAAUUCUGCUGUAUAUCUC [C4A U26C C37A U48C] | 0.18
UAAAAGGGGGCCACAGCAGAAGCGUUCACGUCGCAGCCCCUGUCAGAUUCUGGUGAAUCUGCGAAUUCUGCAGUAUAUCAC [C4A U72A U80A] | 1.25
UAAUAGGGGGCCACAGCAGAAGCGUUCACGUCGCGGCCCCUGUCUGAUUCUGGUGAAUCUGCGAAUUCUGCUGUAUAUCUC [C4U A35G A45U] | 1.19
